Paper PMC6335422 (Nature Communications, 2019)
Results are given in words; binding and its absence hold for the method and conditions named. For some of these results: Binding seen in cells or lysates may run through a third protein. Some results given as binding are weak or reduced against the parent protein; the word gives no strength. Where a sequence is shown, tags or fusion partners need not be part of it. Blank lines part the entries; values can stand above or below the binder they belong to.

T1: Erh1 (residues 1-104), wild type (S. pombe, UniProt G2TRN4 1-104)
T1 construct: Erh1, S. pombe, residues 1-104, amplified from the S. pombe genome, in a modified pET28a vector without thrombin site (p28a); also called Erh1wt; Enhancer of rudimentary homolog 1; source: E. coli BL21 (Gold), purified (Ni-chelating resin, size-exclusion chromatography)
T1 sequence (looked up): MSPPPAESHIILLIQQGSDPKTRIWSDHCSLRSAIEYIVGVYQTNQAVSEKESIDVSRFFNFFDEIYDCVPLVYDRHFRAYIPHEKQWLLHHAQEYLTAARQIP

T2: FLAG-Mmi1 WT (S. pombe) (UniProt O74958)
T2 sequence: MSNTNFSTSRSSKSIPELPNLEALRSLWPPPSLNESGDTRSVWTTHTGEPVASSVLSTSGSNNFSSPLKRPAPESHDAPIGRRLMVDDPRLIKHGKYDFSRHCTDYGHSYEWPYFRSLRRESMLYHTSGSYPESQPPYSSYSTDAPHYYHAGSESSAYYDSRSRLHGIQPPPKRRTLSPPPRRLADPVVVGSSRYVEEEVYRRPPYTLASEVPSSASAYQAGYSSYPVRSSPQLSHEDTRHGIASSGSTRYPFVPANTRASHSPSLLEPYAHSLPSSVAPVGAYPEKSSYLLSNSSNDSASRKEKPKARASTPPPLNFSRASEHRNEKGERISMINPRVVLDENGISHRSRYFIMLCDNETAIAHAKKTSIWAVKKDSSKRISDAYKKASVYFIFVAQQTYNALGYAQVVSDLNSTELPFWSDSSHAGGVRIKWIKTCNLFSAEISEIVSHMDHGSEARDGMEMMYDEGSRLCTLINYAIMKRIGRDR

T3: GST-tagged YTH domain of Mmi1 (S. pombe) (UniProt O74958)
T3 sequence: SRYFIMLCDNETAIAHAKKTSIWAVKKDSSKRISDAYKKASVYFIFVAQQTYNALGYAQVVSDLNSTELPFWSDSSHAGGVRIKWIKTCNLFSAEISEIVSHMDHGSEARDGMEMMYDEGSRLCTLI

T4: GST-tagged Mmi1^95-111 (S. pombe) (UniProt O74958)
T4 sequence: GKYDFSRHCTDYGHSYE

T5: GST-tagged Mmi1^106-122 (S. pombe) (UniProt O74958)
T5 sequence: YGHSYEWPYFRSLRRES

B1: Erh1-GFP (protein, UniProt G2TRN4 1-104)
chain: T1 sequence (looked up)
B2: His-tagged Erh1 (residues 1-104) (natural protein, S. pombe, UniProt G2TRN4 1-104, looked up)
chain: T1 sequence (looked up)
notes: Erh1 (Enhancer of rudimentary homolog 1), S. pombe, residues 1-104; Cloned into p28a, a modified pET28a without a thrombin cleavage site; Homodimer by SEC and in the crystal; also called Enhancer of rudimentary homolog 1; source: E. coli BL21 (Gold), purified (Ni-chelating resin, SEC)

Columns and labels:
[1] = biological target: T1, Erh1 (residues 1-104), wild type; assay: ITC; SUMO-tagged Mmi1 peptides titrated into Erh1 in the sample cell; MicroCal iTC200, 293 K; 20 mM Tris-HCl pH 7.5, 150 mM NaCl; single-site binding model; both purified
FLAG-Mmi1 WT (S. pombe) = biological target: T2, FLAG-Mmi1 WT (S. pombe); assay: co-IP; extracts of S. pombe cells expressing Erh1-GFP and FLAG-Mmi1 WT or W112A under native promoters; antibody-conjugated beads, Western blot
[2] = biological target: T3, GST-tagged YTH domain of Mmi1 (S. pombe); assay: pull-down; GST-Mmi1 fusion proteins incubated with Erh1, collected with glutathione-agarose resin, eluted, SDS-PAGE with Coomassie blue staining; both purified
[3] = biological target: T4, GST-tagged Mmi1^95-111 (S. pombe); assay: as above
[4] = biological target: T5, GST-tagged Mmi1^106-122 (S. pombe); assay: as above
[5] = biological target: B2; assay: ITC; MicroCal iTC200, 293 K, 20 mM Tris-HCl pH 7.5, 150 mM NaCl; SUMO-tagged Mmi1 peptides titrated into Erh1 in the cell; single-site binding model; both purified

binding [1]: no binding
Binder: GKYDFSRHCTDYGHSYEAPYFRSLRRES (domain or fragment, UniProt O74958 95-122) [SUMO-tagged Mmi1 95-122 W112A]

Binder: B1
binding (FLAG-Mmi1 WT (S. pombe)): binds

Binder: B2
binding [2]: no binding
binding [3]: no binding
binding [4]: binds

binding [1]: no binding
Binder: GKYDFSRHCTDYGHSYE (domain or fragment, UniProt O74958 95-111) [SUMO-tagged Mmi1 95-111]

binding [5]: no binding
Binder: GKYDFSRHCTDYGHSYE (domain or fragment, UniProt O74958 95-111) [SUMO tagged Mmi1^95-111]
